Numbering of substitutions follows the chain as printed; changes in the protein carry UniProt numbers. This is one part of the list.
T1: RBFOX1 RRM (Homo sapiens, UniProt Q9NWB1 109-208)
T1 sequence: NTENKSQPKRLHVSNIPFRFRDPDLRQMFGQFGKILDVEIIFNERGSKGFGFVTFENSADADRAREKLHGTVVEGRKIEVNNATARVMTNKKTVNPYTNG

B1: AGGUGUU (DNA:RNA)
RNA: GGGAGACCGGAAUUCAGAUUGUCCAGGUGUUUUAAAUCCCGUCGUAGCCACCA
DNA 1: CAATCTGAATTCCGGTCTCCC
DNA 2: TGGTGGCTACGACGGGATT
B2: GUAGGAC (DNA:RNA)
RNA: B1 RNA with A25G, G26U, G27A, U28G, U30A, U31C
DNA 1: CAATCTGAATTCCGGTCTCCC
DNA 2: TGGTGGCTACGACGGGATT
B3: AAUUGCG (DNA:RNA)
RNA: B1 RNA with G26A, G27U, U30C, U31G
DNA 1: CAATCTGAATTCCGGTCTCCC
DNA 2: TGGTGGCTACGACGGGATT
B4: GCUUAAU (DNA:RNA)
RNA: B1 RNA with A25G, G26C, G27U, G29A, U30A
DNA 1: CAATCTGAATTCCGGTCTCCC
DNA 2: TGGTGGCTACGACGGGATT
B5: ACGUUGG (DNA:RNA)
RNA: B1 RNA with G26C, G29U, U30G, U31G
DNA 1: CAATCTGAATTCCGGTCTCCC
DNA 2: TGGTGGCTACGACGGGATT
B6: AACAUAA (DNA:RNA)
RNA: B1 RNA with G26A, G27C, U28A, G29U, U30A, U31A
DNA 1: CAATCTGAATTCCGGTCTCCC
DNA 2: TGGTGGCTACGACGGGATT
B7: GAGGAUU (DNA:RNA)
RNA: B1 RNA with A25G, G26A, U28G, G29A
DNA 1: CAATCTGAATTCCGGTCTCCC
DNA 2: TGGTGGCTACGACGGGATT
B8: UAUCACG (DNA:RNA)
RNA: GGGAGACCGGAAUUCAGAUUGUCCUAUCACGUUAAAUCCCGUCGUAGCCACCA
DNA 1: CAATCTGAATTCCGGTCTCCC
DNA 2: TGGTGGCTACGACGGGATT
B9: GUAUUCG (DNA:RNA)
RNA: B8 RNA with U25G, A26U, U27A, C28U, A29U
DNA 1: CAATCTGAATTCCGGTCTCCC
DNA 2: TGGTGGCTACGACGGGATT
B10: CCAAUCC (DNA:RNA)
RNA: B8 RNA with U25C, A26C, U27A, C28A, A29U, G31C
DNA 1: CAATCTGAATTCCGGTCTCCC
DNA 2: TGGTGGCTACGACGGGATT
B11: CAAAACC (DNA:RNA)
RNA: B8 RNA with U25C, U27A, C28A, G31C
DNA 1: CAATCTGAATTCCGGTCTCCC
DNA 2: TGGTGGCTACGACGGGATT
B12: UAACUCC (DNA:RNA)
RNA: B8 RNA with U27A, A29U, G31C
DNA 1: CAATCTGAATTCCGGTCTCCC
DNA 2: TGGTGGCTACGACGGGATT
B13: GAUCCUA (DNA:RNA)
RNA: B8 RNA with U25G, A29C, C30U, G31A
DNA 1: CAATCTGAATTCCGGTCTCCC
DNA 2: TGGTGGCTACGACGGGATT
B14: GAUCCUU (DNA:RNA)
RNA: B8 RNA with U25G, A29C, C30U, G31U
DNA 1: CAATCTGAATTCCGGTCTCCC
DNA 2: TGGTGGCTACGACGGGATT
B15: UUAUAUA (DNA:RNA)
RNA: B1 RNA with A25U, G26U, G27A, G29A, U31A
DNA 1: CAATCTGAATTCCGGTCTCCC
DNA 2: TGGTGGCTACGACGGGATT
B16: GCUAUGA (DNA:RNA)
RNA: B8 RNA with U25G, A26C, C28A, A29U, C30G, G31A
DNA 1: CAATCTGAATTCCGGTCTCCC
DNA 2: TGGTGGCTACGACGGGATT
B17: UUGUCUG (DNA:RNA)
RNA: B1 RNA with A25U, G26U, G29C, U31G
DNA 1: CAATCTGAATTCCGGTCTCCC
DNA 2: TGGTGGCTACGACGGGATT
B18: AAUGGAU (DNA:RNA)
RNA: B1 RNA with G26A, G27U, U28G, U30A
DNA 1: CAATCTGAATTCCGGTCTCCC
DNA 2: TGGTGGCTACGACGGGATT
B19: UAGUAUG (DNA:RNA)
RNA: B8 RNA with U27G, C28U, C30U
DNA 1: CAATCTGAATTCCGGTCTCCC
DNA 2: TGGTGGCTACGACGGGATT
B20: CACAGAC (DNA:RNA)
RNA: B1 RNA with A25C, G26A, G27C, U28A, U30A, U31C
DNA 1: CAATCTGAATTCCGGTCTCCC
DNA 2: TGGTGGCTACGACGGGATT
B21: ACCCUAU (DNA:RNA)
RNA: B1 RNA with G26C, G27C, U28C, G29U, U30A
DNA 1: CAATCTGAATTCCGGTCTCCC
DNA 2: TGGTGGCTACGACGGGATT
B22: AUCGAUG (DNA:RNA)
RNA: B1 RNA with G26U, G27C, U28G, G29A, U31G
DNA 1: CAATCTGAATTCCGGTCTCCC
DNA 2: TGGTGGCTACGACGGGATT
B23: ACGGUCU (DNA:RNA)
RNA: B1 RNA with G26C, U28G, G29U, U30C
DNA 1: CAATCTGAATTCCGGTCTCCC
DNA 2: TGGTGGCTACGACGGGATT
B24: CUGGGGC (DNA:RNA)
RNA: B1 RNA with A25C, G26U, U28G, U30G, U31C
DNA 1: CAATCTGAATTCCGGTCTCCC
DNA 2: TGGTGGCTACGACGGGATT
B25: UCUUACU (DNA:RNA)
RNA: B8 RNA with A26C, C28U, G31U
DNA 1: CAATCTGAATTCCGGTCTCCC
DNA 2: TGGTGGCTACGACGGGATT
B26: UGUUUCC (DNA:RNA)
RNA: B8 RNA with A26G, C28U, A29U, G31C
DNA 1: CAATCTGAATTCCGGTCTCCC
DNA 2: TGGTGGCTACGACGGGATT
B27: CCCGAAG (DNA:RNA)
RNA: B8 RNA with U25C, A26C, U27C, C28G, C30A
DNA 1: CAATCTGAATTCCGGTCTCCC
DNA 2: TGGTGGCTACGACGGGATT
B28: UAACCAU (DNA:RNA)
RNA: B8 RNA with U27A, A29C, C30A, G31U
DNA 1: CAATCTGAATTCCGGTCTCCC
DNA 2: TGGTGGCTACGACGGGATT
B29: GUUACAG (DNA:RNA)
RNA: B8 RNA with U25G, A26U, C28A, A29C, C30A
DNA 1: CAATCTGAATTCCGGTCTCCC
DNA 2: TGGTGGCTACGACGGGATT
B30: UCGUUCC (DNA:RNA)
RNA: B1 RNA with A25U, G26C, G29U, U30C, U31C
DNA 1: CAATCTGAATTCCGGTCTCCC
DNA 2: TGGTGGCTACGACGGGATT
B31: CGGCAUC (DNA:RNA)
RNA: B1 RNA with A25C, U28C, G29A, U31C
DNA 1: CAATCTGAATTCCGGTCTCCC
DNA 2: TGGTGGCTACGACGGGATT

These binders were tested against T1, RBFOX1 RRM (assay: EMSA; HiTS-Eq, 1 nM pool, 10 min; buffer printed only for the single-RNA assays: 10 mM Tris pH 7.5, 150 mM NaCl, 3.4 mM EDTA, 0.001% NP-40, 30 C). Conditions: tags: His6 N-terminal (pET28a); label: 5' 32P.
Summary of the method: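 Purified RbFox RRM (wild type or mutant) was equilibrated for 10 min in 50 µL with 1 nM of a 5′-radiolabelled pool of RNA with 7 randomized nucleotides, its flanks annealed to DNA oligonucleotides, across increasing protein concentrations. Free RNA was separated by 8% native PAGE, excised, reverse-transcribed, PCR-barcoded and sequenced on an Illumina HiSeq 2500. Relative association constants came from read-count changes of each variant against the control reaction, normalised to the cognate motif.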

Row | Binder | binding signal
1 | B1 | 0.0135 KA relative to UGCAUGU
2 | B2 | 0.00321 KA relative to UGCAUGU
3 | B3 | 0.011 KA relative to UGCAUGU
4 | B4 | 0.00513 KA relative to UGCAUGU
5 | B5 | 0.0187 KA relative to UGCAUGU
6 | B6 | 0.000651 KA relative to UGCAUGU
7 | B7 | 0.0146 KA relative to UGCAUGU
8 | B8 | 0.00833 KA relative to UGCAUGU
9 | B9 | 0.0103 KA relative to UGCAUGU
10 | B10 | 0.00106 KA relative to UGCAUGU
11 | B11 | 0.000474 KA relative to UGCAUGU
12 | B12 | 0.00402 KA relative to UGCAUGU
13 | B13 | 0.00317 KA relative to UGCAUGU
14 | B14 | 0.00605 KA relative to UGCAUGU
15 | B15 | 0.00524 KA relative to UGCAUGU
16 | B16 | 0.0158 KA relative to UGCAUGU

Row | Binder | binding signal
17 | B17 | 0.0312 KA relative to UGCAUGU
18 | B18 | 0.0053 KA relative to UGCAUGU
19 | B19 | 0.0198 KA relative to UGCAUGU
20 | B20 | 0.00381 KA relative to UGCAUGU
21 | B21 | 0.00141 KA relative to UGCAUGU
22 | B22 | 0.00874 KA relative to UGCAUGU
23 | B23 | 0.0103 KA relative to UGCAUGU
24 | B24 | 0.013 KA relative to UGCAUGU
25 | B25 | 0.00398 KA relative to UGCAUGU
26 | B26 | 0.0194 KA relative to UGCAUGU
27 | B27 | 0.0101 KA relative to UGCAUGU
28 | B28 | 0.000622 KA relative to UGCAUGU
29 | B29 | 0.0109 KA relative to UGCAUGU
30 | B30 | 0.00686 KA relative to UGCAUGU
31 | B31 | 0.0161 KA relative to UGCAUGU
